Data reported in the RNAGym collection of RNA variant scans (doi:10.1073/pnas.2313332121).
Variants at the floor of the assay are shown more often than the library holds them.

B1: TPR 5TU (parent)
chain: GGAUCUUCUCGAUCUAACAAAAAAGACAAAUCUGCCACAAAGCUUGAGAGCAUCUUCGGAUGCAGAGGCGGCAGCCUUCGGUGGCGCGAUAGCGCCAACGUUCUCAACUAUGACACGCAAAACGCGUGCUCCGUUGAAUGGAGUUUAUCAUG

Variants of: B1
Assay: polymerase ribozyme fitness, log enrichment relative to wild type (log ratio); higher = more active; in vitro selection for triplet polymerase activity
Summary of the method: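 In triplicate, a single round of in vitro selection was run on each mutant library, PCR-built and transcribed, covering one subunit of a heterodimeric triplet polymerase ribozyme. Frozen incubation at −7 °C followed annealing with a biotinylated primer, partner subunit and triplets, and extended constructs were then gel-excised, streptavidin-captured and taken through RT-PCR. Fitness is the logarithm of genotype enrichment over wild-type enrichment, from inverse-variance-weighted replicate averages of Illumina-sequenced inputs and outputs. […] only genotypes with ≥10 input reads and ≥1 read per output were kept.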

Variant | polymerase ribozyme fitness (log ratio)
G74A U77G C108U G133A U146C | ≤ -4.2
C75G U78C C99U C132G | ≤ -4.2
C72U G88C | ≤ -4.2
G70C A97G | -3.97
C75G C76G G80C C99A A121C U134G G141A G143C | ≤ -4.2
C72U G126U C132A | -4.12
C75G C95U | -2.19
C72U G152A | -2.42
A73G C93U A122U G140A G143A U145G G152U | ≤ -4.2
G74U G140A | ≤ -4.2
G70C A115G | ≤ -4.2
A73G C85U G133U | ≤ -4.2
C75G G80C C96U | ≤ -4.2
G74C C75A G141U | ≤ -4.2
G74A G88C U148G | ≤ -4.2
G74C G83C C96G U145C | ≤ -4.2
C72U C93G A106G A121U | -2.98
G71C U109C A115G | ≤ -4.2
A73G C96G A110U | ≤ -4.2
A73U C85U C103G C105G C116U A142G | ≤ -4.2
C75A U139C U146A | ≤ -4.2
C72A G83A C93U | ≤ -4.2
A73U A150G | -2.68
A73C C96A C105G C125U G136C | ≤ -4.2

Variant | polymerase ribozyme fitness (log ratio)
G71A U82G A110G | ≤ -4.2
A73U C76G | ≤ -4.2
A73U G84U G152A | -3.83
C75G A97U | ≤ -4.2
C72A A91U U145A | ≤ -4.2
G71U A120G U146C | -2.36
G71U G94C A110G | ≤ -4.2
C75G C76U A97U G141C | ≤ -4.2
C75G A89G U104C C105G A150C | ≤ -4.2
C72U C99G U109C | ≤ -4.2
C75G G92U C105G | ≤ -4.2
G71C C95U C96U C125A | ≤ -4.2
A73C C95U | -2.49
A73U U104G C118G | ≤ -4.2
A73G U101C | 0.659
G71U C85U C93A | ≤ -4.2
C72U A89U G128A | ≤ -4.2
A73G G80C | ≤ -4.2
A73G A91U | ≤ -4.2
A73G U77G C103G G136U | ≤ -4.2
G71A G88A | ≤ -4.2
G70C G136C | ≤ -4.2
C72U U77C C96A A110G | ≤ -4.2
C72U G143C | -3.23

Variant | polymerase ribozyme fitness (log ratio)
C72U C95U G133A | ≤ -4.2
A73C C85G U146A | ≤ -4.2
G71A C87U A91U C99U | ≤ -4.2
G70A U78C G88U U104G A113G G128U U135A | ≤ -4.2
A73G C93U G152A | -2.84
G71U G80C C95U U127A | -3.97
C72A C75U C85U C99U | ≤ -4.2
G71C G84A C118A C129A G136U G141A | ≤ -4.2
A73G G94U G117U G141C A142C U146C | ≤ -4.2
G74A U77A G92U G112U G124A | ≤ -4.2
A73G U134C | 0.53
C72U C85U C95U | -0.261
A73C A115C | ≤ -4.2
C75A G81C C96A A98C | ≤ -4.2
C75A C79A C116U | ≤ -4.2
G70C C87A A98U C99U A107U A122G G133U | ≤ -4.2
A73G C85U A98G C108U U139G | ≤ -4.2
C75A A97C C103U U151G | ≤ -4.2
G71U A91U A122G G143U U145C | ≤ -4.2
G71C G84A A119U | -2.68
C72U G126U | -0.101
A73U C118U | -0.982
G71C U77A U90C C103A U104G C131G | ≤ -4.2
A73U A97G A98U C105G A106U | ≤ -4.2

Variant | polymerase ribozyme fitness (log ratio)
C72U A91U A106C A115G A119U G143A U145G U151G | ≤ -4.2
G71U A73U A97G U145G | ≤ -4.2
C72U U90G U109A A122G | ≤ -4.2
G74A U82G G92U C99A C131A | ≤ -4.2
G74A C85U G136C | ≤ -4.2
A73U G141A C149A | ≤ -4.2
G74C U77C A142G | ≤ -4.2
G71C A91C U102C C108G A120G A137C U151G | ≤ -4.2
C75A U82G C95G C149U | ≤ -4.2
G70U U78A C87G | ≤ -4.2
A73U C76G G94A | ≤ -4.2
C72A U134A | ≤ -4.2
A73G C93U A138G G141U | ≤ -4.2
G70U C87A A115U C116A U151A | ≤ -4.2
G70U G94C C118G A120G U127A G133U G143A | ≤ -4.2
G74A A91U G117U G141U | ≤ -4.2
G71U C93U U104G C149A | ≤ -4.2
A73U A91G C93A C105U G143A | ≤ -4.2
G71C C87G A91C C114G C129G G152U | ≤ -4.2
C75A C96U A97C | ≤ -4.2
G71A C76G U82A G83C C131A | ≤ -4.2
G74A C85U | -3.54
C75A C76A C96U | ≤ -4.2
A73C A142C | ≤ -4.2

Variant | polymerase ribozyme fitness (log ratio)
A73C A142U | ≤ -4.2
A73C A89U G94U A98G | ≤ -4.2
C72A C103G G124A | ≤ -4.2
G74U U111G U151G | ≤ -4.2
C72G C99U U101G A142U | ≤ -4.2
G70C G83A A122C A150U | ≤ -4.2
A73G C95G C96U G124U C149U G152A | ≤ -4.2
G70C A73C U78A G86U | ≤ -4.2
G71U G84A A106U C118A G152A | ≤ -4.2
G74A C79U G86C U104G A115G C149G U151A | ≤ -4.2
C75A G80C C105G | ≤ -4.2
G74C G88U A89U U146A | ≤ -4.2
G70C G81C C95U C114G U134G | ≤ -4.2
C75G U78G C85G C93A | ≤ -4.2
A73G U148C | -2.55
A73C A113C | ≤ -4.2
C75A G140C | ≤ -4.2
A73G G83C | -2.56
A73U U82A A106G A113G G117U G124C | ≤ -4.2
G71A A89G | ≤ -4.2
G74U G83C C99U | ≤ -4.2
C72A G86U A91G C96U C103U C116G G133U G143C | ≤ -4.2
G74U U82G U102A G128U U134A G152C | ≤ -4.2
G71A U82A G83C A110C U134G | ≤ -4.2

Variant | polymerase ribozyme fitness (log ratio)
C75G A91C G92U C95U U101G A113G | ≤ -4.2
C75G U82C C85G G88A C93U A121U A122U | ≤ -4.2
C75G G83A A91G G92A C93G C96A U111G C132U G141A A147U | ≤ -4.2
G71C C87G G141A | ≤ -4.2
C72G U82A U101G A107U A121C | ≤ -4.2
G71C C79A C114A | ≤ -4.2
G71A C85U C103G G124A U145G A150G | ≤ -4.2
G74A G88A U102G G143C U146G | ≤ -4.2
C75G A106C C108A | ≤ -4.2
C72U A73U G83A | -2.51
A73G C87U C129A U134C A142U | ≤ -4.2
C72U C85G C103A | ≤ -4.2
G71C A91U G136C | ≤ -4.2
C72G G86U G140A | ≤ -4.2
C75A C87G G143A | ≤ -4.2
C75A C76G G86C | ≤ -4.2
A73C G94U A107U A119G A121U A122U | ≤ -4.2
A73G G94A U148C | -3.66
C72A C125U G136U | ≤ -4.2
C72U A91G A122U C149U | ≤ -4.2
A73G U82A G94C G143A | ≤ -4.2
G71C A137G | ≤ -4.2
A73U A97G U130G | ≤ -4.2
C72G A147U | -3.16

Variant | polymerase ribozyme fitness (log ratio)
G70U C93G A106G | ≤ -4.2
C72A A97U | ≤ -4.2
C75A G81C | ≤ -4.2
C72G C116U A121U | ≤ -4.2
C75G C85A C105G U130G U146G | ≤ -4.2
A73C G83C | ≤ -4.2
A73U G133U A147C | ≤ -4.2
G71C C85A A137U | ≤ -4.2
A73U C85U | -0.649
C75A G83U U104G A107G | ≤ -4.2
A73U A110C | ≤ -4.2
G74A G141U | -2.35
G70U U82G G86U U104G U109C A122U G133U U139C G152C | ≤ -4.2
G71C C95A | ≤ -4.2
G71C G92C G143U U144G | ≤ -4.2
G71U A97U C103G A142U | ≤ -4.2
G74C A97U C132A G141A G143C | ≤ -4.2
A73G G141A | -0.252
G74C A106C U151G | ≤ -4.2
A73G C79U C96U A142U | ≤ -4.2
A73U G84U U90A U102C A122U | ≤ -4.2
A73U G84U G86U | ≤ -4.2
G74U G83U C105A A119U U134G | ≤ -4.2
